In the supplement of paper PMC4604168 (melanoma cell lines):
This is one part of the list. Most values come without repeats; read them as rough.

Assays:
Assay in all cases: cell count relative to DMSO control; melanoma cells; higher = more viable cells
Conditions in all cases: library dose: low library concentration; 72 h
WM115 = tested on: WM115
WM1716 = tested on: WM1716
WM1745 = tested on: WM1745
WM3526 = tested on: WM3526
WM3619 = tested on: WM3619
WM451Lu = tested on: WM451Lu
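Further: cell number obtained by counting DAPI-stained nuclei in high-throughput microscope images with image analysis software, screen run in 1,536-well plates.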

| Structure (SMILES) | cell count (WM115) [%] | cell count (WM1716) [%] | cell count (WM1745) [%] | cell count (WM3526) [%] | cell count (WM3619) [%] | cell count (WM451Lu) [%] |
| --- | --- | --- | --- | --- | --- | --- |
| CCN(CC)CCNC(=O)c1c(C)[nH]c(/C=C2\C(=O)Nc3ccc(F)cc32)c1C [sunitinib] + Cn1c(Nc2ccc(C(F)(F)F)cc2)nc2cc(Oc3ccnc(-c4ncc(C(F)(F)F)[nH]4)c3)ccc21 [CHIR265] (first compound 0.4 µM, partner dose 0.08 µM) | 56.9 | 105 | 60.2 | 67.9 | 122 | 73.1 |
| COc1cc([C@@H]2c3cc4c(cc3[C@@H](O[C@@H]3O[C@@H]5CO[C@@H](C)O[C@H]5[C@H](O)[C@H]3O)[C@H]3COC(=O)[C@H]23)OCO4)cc(OC)c1O [etoposide] + NC1(c2ccc(-c3nc4ccn5c(=O)[nH]nc5c4cc3-c3ccccc3)cc2)CCC1 [MK2206] (first compound 0.02 µM, partner dose 0.4 µM) | 69.9 | 108 | 98.4 | 77.5 | 113 | 60.7 |
| COc1cc([C@@H]2c3cc4c(cc3[C@@H](O[C@@H]3O[C@@H]5CO[C@@H](C)O[C@H]5[C@H](O)[C@H]3O)[C@H]3COC(=O)[C@H]23)OCO4)cc(OC)c1O [etoposide] + C=CCn1c(=O)c2cnc(Nc3ccc(N4CCN(C)CC4)cc3)nc2n1-c1cccc(C(C)(C)O)n1 [MK1775] (first compound 0.02 µM, partner dose 0.02 µM) | 84.4 | 70.1 | 83.9 | 85.1 | 71.2 | 124 |
| CCN(CC)CCNC(=O)c1c(C)[nH]c(/C=C2\C(=O)Nc3ccc(F)cc32)c1C [sunitinib] + Cc1nc(Nc2ncc(C(=O)Nc3c(C)cccc3Cl)s2)cc(N2CCN(CCO)CC2)n1 [dasatanib] (first compound 0.4 µM, partner dose 0.004 µM) | 88.2 | 126 | 77.3 | 77.2 | 109 | 86.2 |
| C[C@]1(O)C[C@@H](c2nc(-c3ccc4ccc(-c5ccccc5)nc4c3)c3c(N)nccn32)C1 + C=CCNC1=C2C[C@@H](C)C[C@H](OC)[C@H](O)[C@@H](C)/C=C(\C)[C@H](OC(N)=O)[C@@H](OC)/C=C\C=C(/C)C(=O)NC(=CC1=O)C2=O [Tanespimycin] (first compound 0.4 µM, partner dose 0.002 µM) | 103 | 111 | 81.6 | 75.1 | 101 | 115 |
| Cn1cnc2c(F)c(Nc3ccc(Br)cc3Cl)c(C(=O)NOCCO)cc21 [selumetinib] + CN(c1ncccc1CNc1nc(Nc2ccc3c(c2)CC(=O)N3)ncc1C(F)(F)F)S(C)(=O)=O [PF562271] (first compound 0.015 µM, partner dose 0.08 µM) | 74.7 | 94 | 85.6 | 72.7 | 89.3 | 83 |
| CCN(CC)CCNC(=O)c1c(C)[nH]c(/C=C2\C(=O)Nc3ccc(F)cc32)c1C [sunitinib] + Cn1cncc1[C@@](N)(c1ccc(Cl)cc1)c1ccc2c(c1)c(-c1cccc(Cl)c1)cc(=O)n2C [tipifarnib] (first compound 0.4 µM, partner dose 0.01 µM) | 82.4 | 90.8 | 83.2 | 86.4 | 91.3 | 108 |
| Cn1cnc2c(F)c(Nc3ccc(Br)cc3Cl)c(C(=O)NOCCO)cc21 [selumetinib] + CC(=O)c1c(C)c2cnc(Nc3ccc(N4CCNCC4)cn3)nc2n(C2CCCC2)c1=O [palbociclib] (first compound 0.015 µM, partner dose 0.04 µM) | 68.9 | 72.3 | 72.6 | 68.2 | 85.7 | 77.2 |
| C[C@]1(O)C[C@@H](c2nc(-c3ccc4ccc(-c5ccccc5)nc4c3)c3c(N)nccn32)C1 + CCN(CC)CCNC(=O)c1c(C)[nH]c(/C=C2\C(=O)Nc3ccc(F)cc32)c1C [sunitinib] (first compound 0.4 µM, partner dose 0.4 µM) | 104 | 123 | 67 | 82.3 | 82.1 | 81.6 |
| COc1cc([C@@H]2c3cc4c(cc3[C@@H](O[C@@H]3O[C@@H]5CO[C@@H](C)O[C@H]5[C@H](O)[C@H]3O)[C@H]3COC(=O)[C@H]23)OCO4)cc(OC)c1O [etoposide] + COc1ccc(COc2ccc(Cc3cnc(N)nc3N)cc2OC)cc1 [GW2580] (first compound 0.02 µM, partner dose 1 µM) | 86 | 90.2 | 92.7 | 87.1 | 98.1 | 78.3 |
| COc1cc([C@@H]2c3cc4c(cc3[C@@H](O[C@@H]3O[C@@H]5CO[C@@H](C)O[C@H]5[C@H](O)[C@H]3O)[C@H]3COC(=O)[C@H]23)OCO4)cc(OC)c1O [etoposide] + O=C(Nc1ccccc1)c1cc([N+](=O)[O-])ccc1Cl [GW9662] (first compound 0.02 µM, partner dose 2 µM) | 83.9 | 78.7 | 81.6 | 78.9 | 87 | 106 |
| COc1cc([C@@H]2c3cc4c(cc3[C@@H](O[C@@H]3O[C@@H]5CO[C@@H](C)O[C@H]5[C@H](O)[C@H]3O)[C@H]3COC(=O)[C@H]23)OCO4)cc(OC)c1O [etoposide] + CN1CCN(c2ccc3nc(-c4c(N)c5c(F)cccc5[nH]c4=O)[nH]c3c2)CC1 [Dovitinib] (first compound 0.02 µM, partner dose 0.1 µM) | 82.8 | 84.3 | 89.9 | 100 | 88.5 | 77.9 |
| C[C@]1(O)C[C@@H](c2nc(-c3ccc4ccc(-c5ccccc5)nc4c3)c3c(N)nccn32)C1 + CS(=O)(=O)CCNCc1ccc(-c2ccc3ncnc(Nc4ccc(OCc5cccc(F)c5)c(Cl)c4)c3c2)o1 [lapatinib] (first compound 0.4 µM, partner dose 0.8 µM) | 116 | 147 | 81.2 | 80.2 | 93 | 106 |
